From US20070218061A1 (VASGENE THERAPEUTICS, published 2007)

Target: T1, EphrinB2EC-AP from pAPTag2 (human)
T1 construct: also called B2-AP; B2ECAP reagent
T1 chain: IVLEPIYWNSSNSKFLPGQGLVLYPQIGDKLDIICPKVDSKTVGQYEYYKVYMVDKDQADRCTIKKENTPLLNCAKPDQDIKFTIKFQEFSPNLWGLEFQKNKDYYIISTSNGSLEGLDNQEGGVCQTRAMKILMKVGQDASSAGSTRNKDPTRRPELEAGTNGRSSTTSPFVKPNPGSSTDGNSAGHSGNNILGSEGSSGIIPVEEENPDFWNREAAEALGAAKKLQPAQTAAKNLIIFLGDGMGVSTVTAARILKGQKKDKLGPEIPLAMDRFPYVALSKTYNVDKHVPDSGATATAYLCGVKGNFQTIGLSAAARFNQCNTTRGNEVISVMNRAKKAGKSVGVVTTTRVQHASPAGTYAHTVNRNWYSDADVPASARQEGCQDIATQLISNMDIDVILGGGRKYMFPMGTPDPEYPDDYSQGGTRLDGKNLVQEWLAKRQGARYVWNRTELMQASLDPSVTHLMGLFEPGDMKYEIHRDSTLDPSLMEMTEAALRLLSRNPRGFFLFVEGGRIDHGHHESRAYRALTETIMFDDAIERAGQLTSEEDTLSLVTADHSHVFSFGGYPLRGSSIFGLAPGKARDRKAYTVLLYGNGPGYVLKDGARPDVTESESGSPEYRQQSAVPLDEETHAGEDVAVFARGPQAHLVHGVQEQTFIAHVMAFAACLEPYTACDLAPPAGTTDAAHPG
Test: EphrinB2 binding assay of SP-Sepharose fractions

B1: HSA-EphB4 protein, mature form (EphB4 ectodomain fused to HSA) (other)
chain: LEETLLNTKLETADLKWVTFPQVDGQWEELSGLDEEQHSVRTYEVCDVQRAPGQAHWLRTGWVPRRGAVHVYATLRFTMLECLSLPRAGRSCKETFTVFYYESDADTATALTPAWMENPYIKVDTVAAEHLTRKRPGAEATGKVNVKTLRLGPLSKAGFYLAFQDQGACMALLSLHLFYKKCAQLTVNLTRFPETVPRELVVPVAGSCVVDAVPAPGPSPSLYCREDGQWAEQPVTGCSCAPGFEAAEGNTKCRACAQGTFKPLSGEGSCQPCPANSHSNTIGSAVCQCRVGYFRARTDPRGAPCTTPPSAPRSVVSRLNGSSLHLEWSAPLESGGREDLTYALRCRECRPGGSCAPCGGDLTFDPGPRDLVEPWVVVRGLRPDFTYTFEVTALNGVSSLATGPVPFEPVNVTTDREVPPAVSDIRVTRSSPSSLSLAWAVPRAPSGAVLDYEVKYHEKGAEGPSSVRFLKTSENRAELRGLKRGASYLVQVRARSEAGYGPFGQEHHSQTQLDESEGWREQSR[about 600 residues not spelt out]
modifications: biotin on carbohydrate chains (sodium meta-periodate oxidation, EZ-Link Biotin Hydrazide)
notes: also called B4-HSA; sB4-HSA
- binding result: binds
